Source: the supplement of paper PMC3334620
Over roughly 33,000 sequences, “E-score (-0.5 to 0.5)” has its median near -0.017; the highest 2% begin near 0.3. Some of the results follow.

What follows are sequences tested against T1, Sut1 (UniProt P53032) (assay: PBM E-score (8-mer binding enrichment) (E-score (-0.5 to 0.5)); higher = stronger / more preferred TF binding; most listed sequences are background and not binding sites). Conditions: protein concentration: 200 nM; construct: GST-full length.
T1 sequence: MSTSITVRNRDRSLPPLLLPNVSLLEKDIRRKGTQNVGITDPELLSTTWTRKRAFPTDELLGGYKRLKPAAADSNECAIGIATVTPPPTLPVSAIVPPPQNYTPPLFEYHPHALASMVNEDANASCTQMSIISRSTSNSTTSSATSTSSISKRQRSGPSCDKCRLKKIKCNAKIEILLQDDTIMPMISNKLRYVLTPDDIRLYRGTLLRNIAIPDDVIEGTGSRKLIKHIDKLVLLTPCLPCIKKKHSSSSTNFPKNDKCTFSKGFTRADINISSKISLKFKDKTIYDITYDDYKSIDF
In short: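 The E-score, a modified Wilcoxon-Mann-Whitney statistic, was computed by the Universal PBM Analysis Suite for every ungapped eight-base word pooled with its reverse complement. Scans behind it were normalised with masliner after bound GST-tagged yeast transcription factors were detected with fluorescent anti-GST. The proteins, at about 100-200 nM, had been applied to universal all-10-mer Agilent arrays made double-stranded by primer extension.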

| Sequence | PBM E-score |
| --- | --- |
| TAAAGCTA | 0.101 |
| AACGGTCA | 0.00729 |
| GCAGGGCC | -0.373 |
| GCACAGTA | -0.0754 |
| CGACTTTC | 0.0479 |
| CATGGGAC | -0.24 |
| CTCACTAA | 0.0766 |
| GCCAGATA | -0.113 |
| CTAATATC | 0.102 |
| CCGTCAGC | -0.0258 |
| ACCATCAA | 0.0283 |
| CCTATAGC | -0.202 |
| ACGTCATA | 0.182 |
| CCTTCGGA | 0.32 |
| CGCTCAGA | 0.0462 |
| AACTGCCA | -0.177 |
| AGCGCATA | 0.0255 |
| CTTAGGTC | 0.00349 |
| ATCCCACG | -0.261 |
| AGCATACG | -0.231 |
| ATTGTGAG | 0.131 |
| AATAGACG | 0.0203 |
| CCTCGCAG | -0.191 |
| ACGCCAAT | -0.00725 |
| CATGCGAA | -0.108 |

| Sequence | PBM E-score |
| --- | --- |
| CTGTAAAG | 0.0573 |
| CCCTCATC | -0.309 |
| CAGTCCGA | 0.411 |
| CCTGCCCA | -0.263 |
| CCGTGGAG | -0.0839 |
| CAGGCCGG | -0.0888 |
| GCCGTACC | -0.0266 |
| ACGAAATA | 0.0685 |
| AAGGCGTC | -0.17 |
| TAGATACA | 0.0609 |
| ACCATGCC | -0.274 |
| GTCGAGGA | -0.232 |
| AACCACAG | -0.169 |
| CGCCTGTC | -0.236 |
| CAGTCAGG | -0.144 |
| CAAGAGAG | -0.00876 |
| GAAATATA | 0.253 |
| ATCGTCAG | -0.181 |
| ATCACTGA | -0.117 |
| CTACTGCA | -0.212 |
| CTTCATCC | -0.0471 |
| AGAATCAT | 0.0964 |
| ACAAGTGC | -0.153 |
| CGGCCTTA | 0.11 |
| CTCGAGCA | -0.0175 |

| Sequence | PBM E-score |
| --- | --- |
| AGCGATGC | -0.255 |
| ATTGGTAA | 0.102 |
| GCGTGGCC | -0.2 |
| AACACCCT | -0.195 |
| ACAGATGA | -0.255 |
| AAACCAGA | -0.117 |
| ACGGGGAA | 0.0702 |
| CCAGTGTC | -0.206 |
| GGACTGAA | 0.0817 |
| ACGGAATG | 0.127 |
| AGCGGTTC | -0.0664 |
| ACACCTAA | 0.0763 |
| GCAAACTA | -0.0205 |
| CAGAAACA | 0.00594 |
| AATCCGAT | 0.195 |
| AAACCGAC | -0.00265 |
| GCTCTTCC | -0.116 |
| CAAAACGG | 0.0744 |
| CCTAACCG | -0.211 |
| ATCTCTGA | -0.0359 |
| ACACTGAG | -0.135 |
| CGTGCCGC | -0.258 |
| ATTCATCG | 0.0869 |
| ACTTGAAG | 0.0592 |
| AAGCCCTC | -0.213 |

| Sequence | PBM E-score |
| --- | --- |
| CTAAATGA | 0.0829 |
| CCGCGGGC | 0.118 |
| TCATAAAA | 0.156 |
| ATCAAGCC | 0.0302 |
| AAAGTGGT | 0.0517 |
| ACACATAC | 0.214 |
| GGTCAGTA | -0.19 |
| GGATGCCA | -0.207 |
| GGGAATAC | -0.0577 |
| TAGCACTA | -0.0357 |
| CCACTTGA | 0.0277 |
| ACAGTCTA | -0.115 |
| GCTATTAC | -0.019 |
| CGTTAATC | 0.0139 |
| CGAGGGGA | -0.116 |
| ACCAACCT | -0.0379 |
| ATCCCCCG | -0.0337 |
| CTAAACAA | 0.132 |
| CGGGGCTC | 0.0261 |
| AGGTAAAT | 0.137 |
| GGTGATAA | 0.0162 |
| GAACCGAA | 0.13 |
| AAATCCGG | 0.36 |
| GGGAAACC | 0.00128 |
| GGAGCAAC | 0.018 |

| Sequence | PBM E-score |
| --- | --- |
| ACAGCGCT | -0.251 |
| CATCACCC | -0.159 |
| AAGTTGAC | -0.11 |
| AGCGAAGC | -0.0219 |
| GTGAAAAC | 0.0927 |
| CAAAAGCA | 0.126 |
| CAGGAAAC | -0.133 |
| AACTTACG | 0.216 |
| TTAATCAA | 0.251 |
| GTACTATA | 0.286 |
| CCGAGACC | 0.128 |
| CTTGTTCC | -0.0526 |
| CATTGTAG | 0.00424 |
| ACGACCTC | 0.128 |
| AGGTATTG | 0.0471 |
| GAACACTA | 0.13 |
| ATTGTTTA | 0.266 |
| ATATACAT | 0.284 |
| CCTCCAGC | -0.352 |
| GAAACTAC | 0.145 |
| AAATTCCT | 0.0865 |
| CGTGTCAG | 0.154 |
| ACGCACGA | -0.0303 |
| CAGGCTAG | -0.258 |
| ATAGTTCG | 0.041 |

| Sequence | PBM E-score |
| --- | --- |
| CTGTGAAA | 0.145 |
| GGACGCAA | -0.123 |
| ATAGTAAC | 0.153 |
| ATGCGTCC | -0.205 |
| AACACAAA | 0.153 |
| TCAAAGCA | 0.112 |
| CATTGTCG | 0.0481 |
| ACGTTACT | 0.044 |
| ACAGTCAA | -0.0644 |
| AGAGTAAA | 0.0337 |
| GCGAGCTA | 0.087 |
| CTGTGTGC | -0.185 |
| CACAGGAG | -0.186 |
| CTCGAACC | -0.0591 |
| CGTGCCCC | -0.249 |
| CGCTACGA | 0.0897 |
| TAACAGTA | 0.0897 |
| GATAGCCA | -0.0381 |
| AGGCCCAG | -0.194 |
| CATGCTAC | -0.141 |
| ACCGACAG | -0.146 |
| ACCGAGTC | -0.016 |
| ACTATATA | 0.308 |
| CCCGACCC | -0.218 |
| CTGATAAA | 0.291 |

| Sequence | PBM E-score |
| --- | --- |
| AGTTGAGA | 0.0527 |
| GCTTGCTA | -0.204 |
| CGCACACA | -0.161 |
| AAGTTTCA | 0.17 |
| CGTCAGTC | 0.0155 |
| GGCGCCAA | -0.117 |
| GGCGGCCA | -0.169 |
| ATTTACGC | 0.0857 |
| ATATTCGG | 0.0593 |
| TATACTAA | 0.197 |
| ACGTGCCA | -0.159 |
| CCCGCGGG | -0.159 |
| ATCGTCTG | -0.131 |
| GGACCGTA | -0.172 |
| AACAACGT | 0.0217 |
| GCACAGCA | -0.0831 |
| GCACAGAA | 0.0732 |
| CATACCAA | -0.0452 |
| CTGCGTTC | 0.0373 |
| CCGGAGTA | 0.49 |
| ACTGGGAC | -0.0864 |
| AGACGATC | -0.165 |
| AACCTCCT | -0.164 |
| GACCTGGA | -0.194 |
| AAAGAATG | 0.244 |

| Sequence | PBM E-score |
| --- | --- |
| AGCCTAAC | -0.192 |
| AGTGGCCC | -0.078 |
| CAATCCGA | 0.0936 |
| GCCCCACC | -0.0533 |
| AGGTCATA | 0.014 |
| ACATAAAT | 0.184 |
| CAGTCGAG | -0.103 |
| GGACTAAC | 0.277 |
| AGCAACAT | 0.0299 |
| CCGAGCTC | 0.209 |
| CCAGTGCA | -0.238 |
| CCCCGGGA | -0.0206 |
| AGAAGATC | 0.0447 |
| AAACCACC | -0.0477 |
| CCTGCGGC | -0.292 |
| ACTACCCA | -0.256 |
| GGCCCAGA | -0.239 |
| AAGCCGAT | 0.104 |
| ATAATCAC | 0.107 |
| TTACAAAA | 0.276 |
| CCTCGTCC | -0.132 |
| ATATGTTC | 0.188 |
| GGTATGAC | -0.312 |
| CCTCTGAA | -0.16 |
| CCGTGCTC | 0.0504 |

| Sequence | PBM E-score |
| --- | --- |
| TGAGATAA | 0.0925 |
| ACTTCGAC | 0.0552 |
| CGCCAAAA | 0.103 |
| ATCCAAGA | 0.0917 |
| CTCTGATC | -0.066 |
| CATGCTGG | -0.231 |
| ACTCCGCG | 0.476 |
| GTGGAATA | -0.0263 |
| ACGACAGA | -0.198 |
| GACGAGCA | -0.106 |
| ATGTTGTG | 0.0782 |
| ACCGGCGC | 0.0837 |
| ACCGCCAA | -0.114 |
| AGGAACTG | -0.142 |
| CATTCTTA | 0.0137 |
| GTGGCGTA | -0.125 |
| TCGACCAA | -0.155 |
| TATTCCAA | 0.0744 |
| CTGTTACC | -0.141 |
